# Assay results published in publication PMC12040169 (PLOS Biology, 2025).
# The list shows a part of the results.
# Tested on: T1, C. trachomatis L2/434/Bu expressing GFP (CTL2-GFP)
# T1 construct: L2/434/Bu GFP intracellular growth in HeLa cells
# Design: species or system HeLa; C. trachomatis total inclusion area by high-content imaging, normalised to DMSO
# Conditions: total inclusion area; 28.5 h, 10 µM; inhibitor
# In short: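 Post-fluorescence-read fixation, DNA staining with Hoechst and high-content imaging; GFP inclusion area and number per well, and nuclei counts, used as proxies for bacterial growth and host viability.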
row,Compound,% of control remaining
1,CN(C)S(=O)(=O)c1c(Cl)cccc1Cl [CBK091643],65.0377
2,Cc1ccc(OCC(=O)NC(=S)Nc2cc(C(=O)O)ccc2C)cc1C [CBK264955],102.194
3,COc1ccc(-c2cccc(Nc3cc(OC)c(OC)c(OC)c3)n2)cc1OC [CBK037634],40.9415
4,Cc1ccc(OCCSc2nc3ccccc3n2CC(=O)O)c(C(C)C)c1 [CBK300483],79.1471
5,Cc1n[nH]c(=O)c2noc(C)c12 [CBK000857],97.7449
6,CCN(CC)C(=O)CCn1c(-c2cccnc2C)cc2cccnc21 [CBK282147],90.8549
7,Cc1nc(C)n(CC(=O)N2CCc3sccc3C2c2ccco2)n1 (centres unmarked) [CBK281649],97.2728
8,Clc1ccc(Nc2nnc(-c3[nH]ncc3NCc3ccncc3)o2)cc1 [CBK288588],109.155
9,CN(C)CCN(Cc1ccncc1)Cc1cc(F)cc(F)c1 [CBK283096],105.883
10,Cc1ccc(-c2cncc(N(C)CCN(C)C)n2)cc1C [CBK065990],122.543
11,COCCn1c(SCc2cn3c(C)cc(C)nc3n2)nc(C)c1C [CBK306489],41.2603
12,c1ccc(CCN2CCC(Cc3ccccc3)CC2)cc1 [CBK126434],98.6256
13,CCC(C)(C)c1ccc(S(=O)(=O)Nc2cc(Cl)ccc2O)cc1 [CBK045243],92.7285
14,O=C(CCn1c2ccccc2c2ccccc21)N1CCn2cnnc2C1 [CBK283645],95.983
15,Cn1c(SCc2nnc(-c3ccccc3)o2)nnc1C(O)c1ccccc1 (centres unmarked) [CBK269640],104.834
16,O=C(Nc1ccc2oc(-c3cccnc3)nc2c1)c1ccc(-c2ccccc2)cc1 [CBK264035],97.8939
17,O=C(CCn1c(-c2ccccn2)cc2cccnc21)NC1CCCC1 [CBK284965],98.1755
18,CCn1cc(C(=O)NN)c(=O)c2cc(F)c(N3CCCC3)cc21 [CBK307146],57.7844
19,FC(F)(F)Oc1ccc(CNc2nccnc2-c2cccs2)cc1 [CBK036806],103.133
20,Cc1nc2ccc(C(=O)N3CCN(c4ccccc4)CC3)cn2c1N(C)C(=O)c1cccs1 [CBK146544],98.9539
21,OC(CN(c1ccccc1)c1ccccc1)Cn1cnc2ccccc21 (centres unmarked) [CBK261417],97.3473
22,S=C(NCC1CCN(C(=S)NC2CCCCC2)CC1)NC1CCCCC1 [CBK004987],82.6445
23,O=C(c1nc2ccccc2[nH]1)N1CCC(F)CC1 [CBK200278],95.6004
24,CCCCN(C)CCNC(=O)c1ccc2c(c1)NC(=O)C(N1CCCCC1)S2 (centres unmarked) [CBK071799],75.7069
25,Cc1ccc(NC(=O)C(=O)NCCCn2ccnc2)cc1Cl [CBK264238],100.801
26,COc1cc(CN2CCN(Cc3ccco3)CC2)cc(OC)c1OC [CBK074520G],98.3776
27,O=C(c1ccc(-c2cnc3[nH]c(=O)n(CCc4cccnc4)c3n2)cc1)N1CCOCC1 [CBK064334],113.296

row,Compound,% of control remaining
1,O=C(O)c1ccc(N2C(=O)C(O)=C(C(=O)c3ccccc3)C2c2cccc([N+](=O)[O-])c2)cc1 (centres unmarked) [CBK263760],100.742
2,O=C(NCCO)Nc1ccc2nccnc2c1 [CBK027577],4.122
3,Cc1c(C(=O)N2CCC(C(=O)c3cccnc3)CC2)oc2ccccc12 [CBK283954],100.905
4,NCCN(Cc1cccc(Cl)c1)C(=O)NC(c1ccccc1)c1ccccc1 [CBK046203C],71.2747
5,CCOC(=O)CN(Cc1ccccc1)Cc1ccc(OC)cc1 [CBK126460],95.8167
6,CS(=O)(=O)Nc1cc2ccccc2c(-c2ccc(OC(F)(F)F)cc2)n1 [CBK085757],90.4236
7,COc1cc(/C=C/C(=O)O)cc(S(=O)(=O)N2CCOCC2)c1OC [CBK264078],86.6275
8,Cc1[nH]c2ccc(C(=O)O)cc2c1CC(=O)O [CBK267080],113.801
9,Brc1csc(CN2CCN3CCCC3C2C2CCCCC2)c1 (centres unmarked) [CBK026298],15.1958
10,CCCC(=O)N[C@@H](Cn1c(=O)oc2ccccc21)C(C)C [CBK284536],101.6
11,COCC(=O)N1CCC(c2nc(C)n3c(C)csc23)CC1 [CBK285198],92.8101
12,COc1ccc(C2=NN(CN3C(=O)C(=O)c4cc(Br)ccc43)C(c3cccc([N+](=O)[O-])c3)C2)cc1 (centres unmarked) [CBK263490],81.5066
13,CCOc1ccc(CCNC(=O)c2cnc(Nc3ccccc3OC)c3ccccc23)cc1OCC [CBK291185],84.6769
14,CCOc1ccc2c(c1)N1C(=O)NC(C(F)(F)F)(C(F)(F)F)N=C1S2 [CBK025440],60.3581
15,COC(=O)[C@@H]1Cc2ncn(C)c2CN1C(=O)c1ccc(C#N)cc1 [CBK288994],110.804
16,CCNC(=O)c1cn(Cc2ccccc2)nn1 [CBK073904],89.0809
17,CN(Cc1ccccc1)C(=O)c1c[nH]nc1C1CCCCN1Cc1ccccc1Cl (centres unmarked) [CBK285936],81.8914
18,Cc1noc(-c2cn(C)nc2C2CCCCN2CC2CC2)c1C (centres unmarked) [CBK283408],100.521
19,CC#CC1CCCC2N(c3ccccc3)CCN12 (centres unmarked) [CBK028191],61.5474
20,CCOc1ccc(-c2n[nH]c(=S)n2CCC(=O)N2CCCN(Cc3ccc(C#N)cc3)CC2)cc1 [CBK297893],68.4204
21,COc1ccc(CN2CCN(C(=O)c3cccc(F)c3)CC2)cc1 [CBK304396],84.6839
22,CCC(C(=O)NCC1CCCN(C(C)C)C1)n1cnc2ccccc21 (centres unmarked) [CBK282706],112.052
23,COc1ccc(/C=C(\C)C(=O)NCc2ccccc2OC2CCNC2)cc1OC (centres unmarked) [CBK034157T],85.1752
24,N#C/C(=C\c1cn(-c2ccccc2)nc1-c1cccc(S(=O)(=O)N2CCCC2)c1)c1nc2ccccc2c(=O)[nH]1 [CBK266296],118.098
25,O=S(=O)(NCCc1cccc(C(F)(F)F)c1)c1cccs1 [CBK044068],100.598
26,Cc1ccc([N+](=O)[O-])cc1NC(=O)CSc1nnc(Cc2ccccc2)o1 [CBK265889],83.3399
27,CCOC(=O)c1sc(NS(=O)(=O)Cc2ccccc2[N+](=O)[O-])nc1C [CBK047458],98.724

row,Compound,% of control remaining
1,Cc1cccc(NC(=O)c2cnc3n(c2=O)CCS3)c1 [CBK287375],101.913
2,O=C(NC(c1ccccc1)c1ccccc1)N1CCN(Cc2ccccc2)CC1 [CBK155630],79.1199
3,c1ccc(CCNC2CCCc3c2[nH]c2ccc(C4CCCCC4)cc32)cc1 (centres unmarked) [CBK261602C],103.919
4,COc1ccc(N2CCN(Cc3nc4c(c(=O)n(C)c(=O)n4C)n3CC(C)=O)CC2)cc1 [CBK269465],84.068
5,Cc1cnc(CNS(=O)(=O)c2cnn(-c3ccccc3)c2C)cn1 [CBK062335],85.0097
6,CCn1c2ccccc2c2cc(CN3CCN(Cc4cc(OC)cc(OC)c4)CC3)ccc21 [CBK263164],82.9743
7,CCC(C(=O)O)N1C(=O)C(=Cc2ccc(-c3ccccc3C(F)(F)F)o2)SC1=S (centres unmarked) [CBK296985],83.5269
8,COc1ccc2c(c1)C(=O)CC1(CCN(C(=O)/C=C/c3ccc(C)cc3)CC1)O2 [CBK156438],111.716
9,COc1ccc(OCCN2CCC(C(=O)NC(c3ccccn3)c3ccccc3OC)CC2)cc1 (centres unmarked) [CBK147938],85.9628
10,COc1ccc(C(NC(=O)Cc2ccc(-n3nnnc3C)cc2)c2ccccc2)cc1 (centres unmarked) [CBK285537],112.934
11,C[C@@H]1C[C@H](C(F)(F)F)n2nc(C3CCCN3C(=O)C3CC3)cc2N1 (some centres unmarked) [CBK285432],84.987
12,C#CCNC(=O)C1CCN(c2nc3ccccc3n2CC)CC1 [CBK283923],87.932
13,O=C(NC1CC1)[C@@H]1C=CCN1S(=O)(=O)c1ccc(F)cc1 [CBK284294],66.1658
14,Cc1cccc(/N=C2\NC(=O)C(Cc3ccc(C)c(Cl)c3)S2)n1 (centres unmarked) [CBK265597],115.2
15,CCCCN1CC(C(=O)Nc2nccs2)CC1=O (centres unmarked) [CBK288224],100.354
16,CCNC(=O)Nc1cc2ccccc2c(-c2ccc(F)cc2OC)n1 [CBK085731],58.8919
17,CSc1nc(-n2nc(C)cc2C)c2c3c(sc2n1)COC(C)(C)C3 [CBK268906],97.2281
18,O=C(O)CSc1cccc([N+](=O)[O-])c1 [CBK110160],72.944
19,Cc1cc(Cl)ccc1OCCCc1nnc(S)n1C [CBK288396],59.9215
20,Cc1cccc(C2(O)CCN(C(=O)c3ccc4nc(C)[nH]c4c3)CC2)c1 [CBK283299],117.026
21,COc1cccc(CN2CCC3(C/C=C/COc4ccccc4C(=O)NCCNC3=O)CC2)c1F [CBK292025],112.574
22,CCN1CCc2nc(NC(=O)Cc3cn4ccsc4n3)sc2C1 [CBK304534],54.1125
23,Brc1cn2ccnc2c(NCc2ccccn2)n1 [CBK038024],111.714
24,Cc1nc(C)n(C(C)CNC(=O)Cn2ccc3ccc(F)cc32)n1 (centres unmarked) [CBK282612],114.898
25,Cc1ccccc1-c1ccccc1CC1(C(N)=O)CCN(C(=O)c2ccccc2)CC1 [CBK285721],112.844
26,O=C1CCCN1CCOc1nccnc1-c1cc2ccccc2s1 [CBK106780],105.343
